# Out of some 200,000 compounds screened, about 860 (0.43%) were called active. Inconclusive means that the source gave no clear call. Such entries were picked first, then a sample of the others. Calls come from the whole dose curve; as a rule, active = well fitted inhibition curve with a large enough effect; inconclusive = small, poorly fitted or top-dose-only effect; inactive = flat fitted curve, though single readings scatter. Potencies beside an inconclusive call are fits to weak or partial responses and may not hold up.
# Molecular target: Cruzipain (Trypanosoma cruzi) (UniProt P25779)
# Assay: qHTS Assay for Promiscuous and Specific Inhibitors of Cruzain (with detergent); note: nearly all actives have a fitted effect of over 40% in size;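 for max response, negative = inhibition: plate controls were neutral wells for no effect and buffer without enzyme for full effect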
# Conditions: purified cruzain, Z-FR-AMC fluorescence, 0.01% Triton
# Outline: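 Steps: dispense cruzain (1.5 nM final) in acetate buffer pH 5.5 with DTT and 0.01% Triton X-100; pin-transfer compounds; incubate 15 min RT; add Z-FR-AMC (2 uM final); read fluorescence every 30 s, using the 60 s intensity change.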
# Potency is the fitted concentration of half-maximal effect; tags give direction and shape of the fitted curve.
# UniProt P25779, sequence (P25779 whole entry, looked up): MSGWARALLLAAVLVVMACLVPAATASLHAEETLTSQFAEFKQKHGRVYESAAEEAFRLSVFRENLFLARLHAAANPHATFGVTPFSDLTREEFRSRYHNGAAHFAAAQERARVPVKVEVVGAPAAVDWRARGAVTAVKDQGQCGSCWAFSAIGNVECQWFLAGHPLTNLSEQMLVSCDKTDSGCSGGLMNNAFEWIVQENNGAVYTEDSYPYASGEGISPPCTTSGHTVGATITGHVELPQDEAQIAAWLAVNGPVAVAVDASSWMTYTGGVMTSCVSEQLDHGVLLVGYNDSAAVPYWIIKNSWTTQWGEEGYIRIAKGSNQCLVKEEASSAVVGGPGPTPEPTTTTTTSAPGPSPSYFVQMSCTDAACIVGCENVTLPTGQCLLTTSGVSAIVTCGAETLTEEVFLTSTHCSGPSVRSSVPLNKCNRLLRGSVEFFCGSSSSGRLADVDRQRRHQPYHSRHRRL
Structure (SMILES),Potency,"max response, negative = inhibition"
CCCCN(CC)CCNC(=O)C1CCCN(S(=O)(=O)c2cccc3nsnc23)C1 (stereo not given),"inconclusive: 28.2 µM [inhibitor, single point]",
N#Cc1c(C(F)(F)F)cc(C2CC2)[nH]c1=O,"inconclusive: 31.6 µM [inhibitor, single point]",
Cc1nnc(SCC(=O)Nc2nsc(-c3ccc(Cl)cc3)n2)s1,"inconclusive: 39.8 µM [inhibitor, single point]",
COc1ccc(S(=O)(=O)c2c(C(=O)c3ccc(C)c(C)c3)cnc3ccc(F)cc23)cc1,,inactive: -2.88%
COc1ccc(-n2c(=O)c(CCc3ccccc3)nc3cnc(N(C)C)nc32)cc1,,inactive: 0.751%
Cc1ccc(Cl)cc1NC(=O)Cc1ccc(-n2c(C)nc3cccnc32)cc1,"inconclusive: 15.8 µM [inhibitor, partial curve]",
Nc1cc(=O)[nH]c(SCC(=O)Nc2cc(Cl)cc(Cl)c2)n1,,inactive: -2.19%
Cc1ccc(S(=O)(=O)N2CCC(C(=O)Nc3ccc(C)c(Cl)c3)CC2)cc1,"inconclusive: 28.2 µM [inhibitor, single point]",
CCNc1ncc2nc(C)c(=O)n(C[C@H]3CCCO3)c2n1,active: 20 µM,
O=C(NCCN1C(=O)S/C(=C\c2cccs2)C1=O)c1ccc(=O)[nH]c1,,inactive: -16.7%
O=c1[nH]c(=O)n(-c2cccc(Cl)c2)c(O)c1C=NCCN1CCCCC1,"inconclusive: 35.5 µM [inhibitor, single point]",
COc1ccc2[nH]c3c(NCCN(C(C)C)C(C)C)ncnc3c2c1,"inconclusive: 12.6 µM [inhibitor, partial curve]",
O=C(COC(=O)CNC(=O)c1ccccc1)Nc1nc(-c2ccccc2)cs1,active: 25.1 µM,
O=C(CCc1nc2cccnc2n1-c1ccccc1)Nc1ccc(Cl)c(Cl)c1,,inactive: -6.37%
Nc1ccc(-c2nc3c(Cl)c(N)ccc3[nH]2)cc1,"inconclusive: 31.6 µM [inhibitor, single point]",
O=C1c2ccccc2C(=O)N1OS(=O)(=O)c1ccccc1,"inconclusive: 14.1 µM [inhibitor, partial curve]",
O=S(=O)(c1ccc2nc(-c3ccco3)c(-c3ccco3)nc2c1)N1CCOCC1,active: 22.4 µM,
COc1ccc(Cl)cc1NC(=O)c1nnn(Cc2cccc(C(F)(F)F)c2)c1N,,inactive: 1.78%
COc1ccc(/C=C/C(=O)NC(=S)NN2CCCCC2c2cccnc2)cc1OC (stereo not given),"inconclusive: 22.4 µM [inhibitor, single point]",
CC(=O)Oc1oc(-c2ccccc2)nc1C=Nc1ccccc1,active: 25.1 µM,

# Reference: PubChem BioAssay AID1478 (National Center for Advancing Translational Sciences (NCATS), 2009)
